“And” between values parts separate entries of the source, which are not always exact repeats. Identical values can stand only once. The whole screen tested about 420,000 compounds, of which about 64,000 (15%) were called active. Inconclusive results, whose numbers are uncertain, are shown with a selection of clear calls. Calls follow the shape of the dose curve; as a rule, active = well fitted inhibition curve with a large enough effect; inconclusive = small, poorly fitted or top-dose-only effect; inactive = flat fitted curve, though single readings scatter. Potencies beside an inconclusive call are fits to weak or partial responses and may not hold up.
test: qHTS for Inhibitors of human tyrosyl-DNA phosphodiesterase 1 (TDP1): qHTS in cells in absence of CPT; conditions: DT40 Tdp1-/- hTDP1 cells, no CPT, ATP luminescence, 48 h; activity change, negative = growth inhibition: at 46.2 µM (top of the series) unless noted; also: nearly all actives have a fitted effect of over 55% in size
Method in brief: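 Seeded 400 DT40-hTDP1 cells/well (vehicle DMSO, no 20 nM CPT); pinned compounds; ≥48 hr at 37 °C; CellTiter-Glo luminescence as viability measure.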
% is scaled to controls: 0 for no effect and ±100 for the full control effect; potency is read from the fitted curve at half-maximal effect; tags tell the direction and shape of the fitted curve.

Row | SMILES | activity change, negative = growth inhibition | Potency
1 | CCN(CC)C(=O)c1ccc(NC(=O)Cn2nc(-c3ccc(C)cc3)c3ccccc3c2=O)cc1 | inactive: -19.6% | 
2 | CC1N(C)c2cc(NC(=O)c3ccco3)c(P(=O)(Nc3ccc([N+](=O)[O-])cc3)N3CCOCC3)cc2C1(C)C (stereo not drawn) |  | active: 5.17 µM
3 | CO[C@H](C(=O)[C@@H](O)[C@@H](C)O)C1Cc2cc3cc(O[C@H]4C[C@@H](O[C@H]5C[C@@H](O)[C@H](O)[C@@H](C)O5)[C@@H](O)[C@@H](C)O4)c(C)c(O)c3c(O)c2C(=O)[C@H]1O[C@H]1C[C@@H](O[C@H]2C[C@@H](O[C@H]3C[C@](C)(O)[C@H](O)[C@@H](C)O3)[C@H](O)[C@@H](C)O2)[C@H](O)[C@@H](C)O1 (stereo partly drawn) |  | active: 188 nM and active: 84.1 nM
4 | CCCOC(=O)c1c(N)n(Cc2cccs2)c2nc3ccccc3nc12 |  | inconclusive: 20.6 µM [inhibitor, single point]
5 | N#CC1=C(N)Oc2c(c(=O)oc3ccccc23)C1c1ccncc1 (stereo not drawn) | inactive: -1.07% | 
6 | C[C@H](CCC(=O)O)[C@H]1CC[C@H]2[C@@H]3[C@@H](O)C[C@@H]4C[C@H](O)CC[C@]4(C)[C@H]3CC[C@]12C |  | inconclusive: 29.1 µM [inhibitor, single point]
7 | Cc1c2cnn(CC(=O)N3CCC4(CC3)OCCO4)c(=O)c2c(C)n1Cc1ccccc1 |  | inconclusive: 16.4 µM [inhibitor, single point]
8 | O=[N+]([O-])/C=C/c1c(Cl)cccc1Cl |  | active: 1.3 µM
9 | O=C(NC1CCCCC1)N1Cc2ccccc2-n2nncc2C1 | inactive: -2.1% | 
10 | CC/C(=N\Nc1ccccc1)c1c(O)n(-c2ccc(OC)cc2)c(=O)[nH]c1=O | inactive: 4.41% | 
11 | CO[C@H]1C=CCCC=CC(=O)O[C@H]([C@H](C)C(=O)CCCC2CC(=O)NC(=O)C2)C(C)=C[C@@H](C)[C@@H]1O |  | active: 6.51 µM
12 | CCOC(=O)c1ccc(N2C(=O)CC(N3CC=C(c4ccc(F)cc4)CC3)C2=O)cc1 (stereo not drawn) |  | inconclusive: 29.1 µM [inhibitor, single point]
13 | Cc1ccc2oc(=O)n(CCC(=O)Nc3ccc(N4CCOCC4)cc3)c2c1 |  | inconclusive: 20.6 µM [inhibitor, single point]
14 | Cc1cc2c(s1)Nc1ccccc1N=C2N1CCN(C)CC1 |  | inactive and inconclusive: 29.9 µM [inhibitor, single point]
15 | CC1CN=C(NCc2ccncc2)S1 (stereo not drawn) | inactive: -11.1% | 
16 | Cc1oc(-c2ccccc2Cl)nc1CN1C(=O)CN=C(c2ccccc2)c2cc(Cl)ccc21 |  | inconclusive: 29.1 µM [inhibitor, single point]
17 | CCOc1cc2c(cc1OCC)-n1cccc1C(c1ccc(OC)c(OC)c1)NC2 (stereo not drawn) |  | inconclusive: 18.4 µM [inhibitor, partial curve, poor fit]
18 | COc1cccc(CNC(=O)c2cc3c(-c4ccccc4F)nn(C)c3s2)c1 |  | active: 16.4 µM
19 | O=C(c1ccccc1F)c1cn(CC(=O)N2CCOCC2)c2ccccc12 | inactive: -4.47% | 
20 | COc1ccc(CNC(=O)CCC(=O)N2C[C@H]3C[C@H](C2)c2cccc(=O)n2C3)cc1OC | inactive: 1.04% | 
21 | O=P(Oc1ccc(Cl)cc1)(N1CC1)N1CC1 |  | inconclusive: 7.31 µM [inhibitor, partial curve]
22 | COc1cc2c(cc1OC)-c1c(O)c(OC)cc3c1[C@H](C2)N(C)CC3 |  | active: 23.7 µM
23 | CCOc1ccc2c3c1O[C@H]1[C@@H](O)C=C[C@H]4[C@@H](C2)N(C)CC[C@@]341 |  | inconclusive: 29.9 µM [inhibitor, single point]

Row | SMILES | activity change, negative = growth inhibition | Potency
24 | CS(=O)(=O)c1ccc(C(=O)C2C(=O)CCCC2=O)c([N+](=O)[O-])c1 |  | inconclusive: 30.6 µM [inhibitor, partial curve]
25 | O=C1c2ccccc2-c2c1nc1c([n+]2[O-])CCCC1 |  | inconclusive: 29.1 µM [inhibitor, single point]
26 | CC[C@H](C)/C=C(C)/C=C/C1=CC2=C(Cl)C(=O)[C@@](C)(OC(C)=O)C(=O)C2=CO1 |  | inconclusive: 29.1 µM [inhibitor, single point]
27 | Cc1ccc(-n2c(O)c(/C=C/C=Nc3ccccc3)c(=O)[nH]c2=O)cc1 | inactive: 4.22% | 
28 | Cc1cccc(C)c1-n1nnnc1C(c1cccs1)N1CCC(n2c(=O)[nH]c3ccccc32)CC1 (stereo not drawn) |  | active: 20.6 µM
29 | O=C1CC(N2CC=C(c3ccccc3)CC2)C(=O)N1c1ccc(F)cc1 (stereo not drawn) |  | active: 18.4 µM
30 | COc1ccc(NC(=O)CCc2nc(C3=CCN(Cc4cccc(Cl)c4)CC3)no2)cc1OC |  | active: 11.6 µM
31 | Fc1ccc2c(c1)nnn2C1CCN(Cc2ccccc2)CC1 | inactive: -14.3% | 
32 | O=C1NC(=O)C(Cc2ccccc2)(Cc2ccccc2)C(=O)N1 | inactive: -78.9% | 
33 | Oc1ccccc1/C=N/NP(=S)(c1ccccc1)c1ccccc1 |  | inconclusive: 29.1 µM [inhibitor, single point]
34 | COc1ccc2nc(/N=C/c3c(O)n(-c4cccc(Cl)c4)c(=O)[nH]c3=O)sc2c1 |  | inconclusive: 25.9 µM [inhibitor, partial curve]
35 | CCOC(=O)c1cnc(N2CC2)nc1N |  | active: 0.92 µM
36 | O=c1[nH]c(O)c(N=Nc2cc([N+](=O)[O-])ccc2O)c(=O)[nH]1 | inactive: -27.1% | 
37 | O=C(c1ccc(Cl)cc1)C1CCCN(Cc2ccc3ncccc3c2)C1 (stereo not drawn) |  | active: 16.4 µM
38 | CN(C)C(=O)Oc1cc(=O)n2c3c(cccc13)CCC2 | inactive: -22.8% | 
39 | c1cncc(CNc2cc(-c3ccc4c(c3)OCO4)ncn2)c1 |  | inconclusive: 9.2 µM [inhibitor, partial curve]
40 | CCOc1ccc(NC(=O)c2cccn(Cc3cccc(Cl)c3)c2=O)cc1 |  | inconclusive: 29.1 µM [inhibitor, single point]
41 | COc1cc2c(cc1OC)-c1c(OC)c(OC)c(C=O)c3c1[C@H](C2)N(C)CC3 |  | inconclusive: 23.7 µM [inhibitor, partial curve, poor fit]
42 | CCOc1ccc(-c2cc(C)[n+](CCN3CCOCC3)c(-c3ccc(OCC)cc3)c2)cc1 |  | active: 1.3 µM
43 | COc1ccc(CN2CCN(Cc3ccccc3)CC2)c(OC)c1 | inactive: -23% | 
44 | Cn1cnc(CCN)c1 | inactive: -14.6% | 
45 | O=C(O)C(O)(c1ccc(Cl)cc1)C1(O)CCCC1 (stereo not drawn) | inactive: -10.6% | 
46 | CCC(c1nnnn1Cc1ccccc1)N1CCC2(CC1)C(=O)NCN2c1ccccc1 (stereo not drawn) |  | inconclusive: 25.9 µM [inhibitor, single point]

Row | SMILES | activity change, negative = growth inhibition | Potency
47 | C=C[C@H]1CN2CC[C@H]1C[C@@H]2[C@@H](O)c1ccnc2ccccc12 |  | inconclusive: 21.1 µM [inhibitor, single point] and inconclusive: 13 µM [inhibitor, partial curve]
48 | C=Cn1ccnc1P(=S)(c1ccc(N(C)C)cc1)c1nccn1C=C | inactive: -14.5% | 
49 | CCCNc1nc2c(c(=O)[nH]c(=O)n2C)n1Cc1ccc(F)cc1 |  | inconclusive: 29.1 µM [inhibitor, single point]
50 | CN1C(=O)C(Cc2nc3ccccc3c(=O)n2-c2ccccc2)c2ccccc21 (stereo not drawn) | inconclusive: -33.6% [inhibitor] | 
51 | CCN(CC)C(=O)/C(Cl)=C(\C)OP(=O)(OC)OC | inactive: -2.66% | 
52 | O=C(NCP(=O)(Oc1ccccc1)Oc1ccccc1)OCc1ccccc1 | inactive: -18.7% | 
53 | Nc1ncnc2c1ncn2[C@@H]1O[C@H](COP(=O)(O)CP(=O)(O)O)[C@@H](O)[C@H]1O |  | inconclusive: 8.2 µM [inhibitor, partial curve] and inconclusive: 20.6 µM [inhibitor, partial curve]
54 | COc1cc2[nH]c(C)c(CCN3CCN(c4ccccc4)CC3)c2cc1OC |  | inconclusive: 22.4 µM [inhibitor, single point]
55 | Cn1cccc1/C=C1/C(=O)NC(=O)N(Cc2ccccc2)C1=O |  | active: 2.31 µM
56 | CCOC(=O)c1cnc2c(ccc3ccccc32)c1Nc1ccc(C(C)=O)cc1 |  | active: 23.1 µM
57 | COc1cc(C2c3cc4c(cc3CC3COC(=O)C32)OCO4)cc(OC)c1OC (stereo not drawn) |  | active: 0.0052 µM
58 | C/C(=C\c1csc(C)n1)[C@@H]1C[C@@H]2O[C@]2(C)CCC[C@H](C)[C@H](O)[C@@H](C)C(=O)C(C)(C)[C@@H](O)CC(=O)O1 |  | active: 0.0013 µM
59 | CCC(C)C(=O)N[C@@H](c1ccccc1)[C@@H](O)C(=O)O[C@H]1C[C@@]2(O)[C@@H](OC(=O)c3ccccc3)C3[C@](C)(C(=O)[C@H](OC(C)=O)C(=C1C)C2(C)C)[C@@H](O)C[C@H]1OC[C@@]31OC(C)=O (stereo partly drawn) |  | active: 0.184 µM
60 | Cc1ccc(NP(=O)(Oc2ccccc2)Oc2ccccc2)cc1 | inactive: -20.4% | 
61 | O=C1OC2(c3cc(Br)c(O)cc3Oc3c2cc(Br)c(O)[c]3[Hg])c2ccccc21 (stereo not drawn) |  | active: 3.6 µM
62 | O=C(Nc1ccc(F)cc1)c1c(O)c2c(n(Cc3ccccc3)c1=O)CCCC2 | inactive: 2.53% | 
63 | C=CCn1c(=O)c(C(=O)NCc2ccccc2)c(O)c2ccccc21 |  | inconclusive: 29.1 µM [inhibitor, single point]
64 | CC(=O)N1N=C(c2c(O)n(C)c(=O)n(C)c2=O)CC1c1ccccc1 (stereo not drawn) |  | active: 14.6 µM
65 | CCN(CC(=O)Nc1ccccc1C(F)(F)F)C(=O)CCSc1ccc(F)cc1 |  | inconclusive: 29.1 µM [inhibitor, single point]
66 | O=C1CC(c2ccc(F)cc2)c2c(c3ccccc3oc2=O)O1 (stereo not drawn) | inactive: -5.02% | 
67 | CCCCC(CC)COP(=O)(OCC(CC)CCCC)OCC(CC)CCCC (stereo not drawn) |  | inconclusive: 18.4 µM [inhibitor, single point]
68 | CCOC(=O)[C@]12Cc3cc(Cl)ccc3[C@H]1N(Cc1ccccc1)C(=O)c1ccccc12 |  | inconclusive: 22.4 µM [inhibitor, single point] and inconclusive: 16.4 µM [inhibitor, single point]

From PubChem BioAssay AID686978 (National Center for Advancing Translational Sciences (NCATS), 2013)
